The results in this text go back to the supplement of paper PMC4604168 (melanoma cell lines).

The list shows a part of the results. Most values come without repeats; read them as rough.
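Note: cell number obtained by counting DAPI-stained nuclei in high-throughput microscope images with image analysis software, screen run in 1,536-well plates.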

This assay relates to MeWo. The experiment in a line: cell count relative to DMSO control; melanoma cells; higher = more viable cells. The settings on record: library dose: low library concentration; 72 h.
`CN(NC(=O)CC(=O)NN(C)C(=S)c1ccccc1)C(=S)c1ccccc1` + Cn1cc(/C=C2\C(=O)Nc3cccnc32)c2ccccc21 [GW441756] (first compound 0.006 µM, partner dose 0.4 µM) showed a cell count of 77.8%. In the case of `Cc1ccc(NC(=O)c2cccc(N(C)C)c2)cc1NC(=O)c1ccc(O)cc1` + CCc1ccc(CCOc2ccc(CC3SC(=O)NC3=O)cc2)nc1 [pioglitazone] (first compound 2 µM, partner dose 2 µM), the cell count amounted to 98.8%. Compound `COc1cc2c(Oc3ccc4[nH]c(C)cc4c3F)ncnc2cc1OCCCN1CCCC1` [cediranib] + N#Cc1c(O)c2c(-c3ccc(-c4ccccc4O)cc3)csc2[nH]c1=O [A769662] (first compound 0.4 µM, partner dose 2 µM) yielded a cell count of 110%. `CCc1ccc(CCOc2ccc(CC3SC(=O)NC3=O)cc2)nc1` (stereo unspecified) [pioglitazone] + Cc1cc([N+](=O)[O-])ccc1NS(=O)(=O)c1cc(Cl)ccc1Cl [FH535] (first compound 2 µM, partner dose 1 µM) had a cell count of 106%.

Compound `CCc1ccc(CCOc2ccc(CC3SC(=O)NC3=O)cc2)nc1` (stereo unspecified) [pioglitazone] + COC(=O)c1sccc1S(=O)(=O)Nc1ccc(Nc2ccccc2)cc1OC [GSK0660] (first compound 2 µM, partner dose 1 µM) returned a cell count of 115%.

Consider `COc1cc2c(Oc3ccc4[nH]c(C)cc4c3F)ncnc2cc1OCCCN1CCCC1` [cediranib] + COc1ccc(COc2ccc(Cc3cnc(N)nc3N)cc2OC)cc1 [GW2580] (first compound 0.4 µM, partner dose 1 µM), for which the cell count is 97.8%.
